Laboratory results: the antibiotic and cytotoxicity screens of Wong et al. (2023)
This is one part of the list.

Experiments:
HSkMC = human skeletal muscle cells; experiment: cytotoxicity call (relative viability < 0.9); details: 10 µM
HepG2 = experiment: cytotoxicity call (relative viability < 0.9); details: 10 µM
S. aureus RN4220 = experiment: growth inhibition call (relative growth <= 0.2); details: 50 µM

Compound	cytotoxicity call (HSkMC)	cytotoxicity call (HepG2)	growth inhibition call (S. aureus RN4220)
C[C@H](CO)N1C[C@H](C)[C@@H](CN(C)S(=O)(=O)c2ccc(F)cc2)Oc2ccc(NC(=O)c3ccncc3)cc2C1=O	inactive	inactive	inactive
COc1ccc(CN(C)C[C@@H]2OCCCC[C@H](C)Oc3ccc(NC(=O)Nc4ccc(OC)cc4)cc3C(=O)N([C@H](C)CO)C[C@H]2C)cc1	inactive	inactive	inactive
NCCC(=O)NC(Cc1c[nH]cn1)C(=O)O (centres undefined)	inactive	inactive	inactive
COc1ccc2c3c(n(c2c1)C)[C@H](CO)N(C[C@]13CN(C1)C(=O)c1ccncc1)C(=O)C1CCOCC1	inactive	inactive	inactive
C[C@@H]1CN([C@H](C)CO)S(=O)(=O)c2ccc(C#Cc3cccc(F)c3)cc2O[C@@H]1CN(C)S(=O)(=O)c1cn(C)cn1	inactive	inactive	inactive
Nc1ncnc2c1nc(Br)n2[C@H]1O[C@H]2COP(=O)(O)O[C@@H]2[C@@H]1O	inactive	inactive	inactive
C[C@H](CO)N1C[C@H](C)[C@H](CN(C)S(=O)(=O)c2cccs2)Oc2ccc(NC(=O)Nc3cccc4ccccc34)cc2CC1=O	inactive	inactive	inactive
O=C(O)c1cc(=O)c2cccc(O)c2[nH]1	inactive	inactive	inactive
C[C@H](CO)N1C[C@H](C)[C@H](CN(C)S(=O)(=O)c2cn(C)cn2)Oc2c(NC(=O)Nc3ccc4c(c3)OCO4)cccc2C1=O	inactive	inactive	inactive
C[C@H](CO)N1C[C@H](C)[C@H](CN(C)Cc2ccc3c(c2)OCO3)OCCCC[C@H](C)Oc2ccc(NC(=O)C3CCCCC3)cc2C1=O	inactive	inactive	inactive
N[C@@H]1CC[C@@H](CCn2cc(C3(O)CCCC3)nn2)O[C@H]1CO	inactive	inactive	inactive
O=S(=O)(OC[C@H]1O[C@@](COS(=O)(=O)[O][Al]([OH])[OH])(O[C@H]2O[C@H](COS(=O)(=O)[O][Al]([OH])[OH])[C@@H](OS(=O)(=O)[O][Al]([OH])[OH])[C@H](OS(=O)(=O)[O][Al]([OH])[OH])[C@H]2OS(=O)(=O)[O][Al]([OH])[OH])[C@@H](OS(=O)(=O)[O][Al]([OH])[OH])[C@@H]1OS(=O)(=O)[O][Al]([OH])[OH])[O][Al]([OH])[OH].[OH][Al]([OH])[OH].[OH][Al]([OH])[OH].[OH][Al]([OH])[OH].[OH][Al]([OH])[OH].[OH][Al]([OH])[OH].[OH][Al]([OH])[OH].[OH][Al]([OH])[OH].[OH][Al]([OH])[OH]	inactive	inactive	inactive
O=C(NO)c1cccc(C(=O)N/N=C/[C@H](O)[C@@H](O)[C@@H](O)[C@H](O)CO)c1	inactive	inactive	inactive
Cc1c(C(=O)Nc2ccc(Oc3ccnc4cc(OCC(C)(C)O)ccc34)c(F)c2)c(=O)n(-c2ccccc2)n1C	active	inactive	inactive
Cn1c(N)c(S(=O)(=O)N2CCCC[C@@H]2c2cccnc2)c(=O)n(C)c1=O	inactive	inactive	inactive
C[C@H](CO)N1C[C@H](C)[C@@H](CN(C)C(=O)Nc2ccc(F)cc2)Oc2ccc(NC(=O)Nc3ccc(C(F)(F)F)cc3)cc2CC1=O	inactive	active	inactive
CO[C@H]1CN(C)C(=O)c2ccc(NC(=O)Nc3ccccc3)cc2OC[C@@H](C)N(C(=O)CN(C)C)C[C@@H]1C	inactive	inactive	inactive
Cc1noc(C)c1NC(=O)N(C)C[C@H]1Oc2ccc(NC(=O)c3ccncc3)cc2CC(=O)N([C@H](C)CO)C[C@H]1C	inactive	inactive	inactive
O=c1nc[nH]c2c1ncn2[C@H]1CC[C@@H](CO)O1	inactive	inactive	inactive
C[C@H]1CN([C@@H](C)CO)C(=O)c2c(c3ccccc3n2C)-c2ccccc2CO[C@H]1CN(C)C(=O)Nc1ccc(F)cc1	inactive	inactive	inactive
C[C@@H]1CN([C@H](C)CO)C(=O)c2cc(NC(=O)Nc3ccccc3)ccc2O[C@@H](C)CCCCO[C@@H]1CN(C)C(=O)C1CCCCC1	inactive	inactive	inactive
O=C(C[C@H]1CC[C@H]2[C@@H](COC[C@@H](O)CN2S(=O)(=O)c2ccccc2)O1)N[C@H]1CCN(Cc2ccccc2)C1	inactive	inactive	inactive
COCC(=O)Nc1ccc2c(c1)OC[C@@H](C)N(C(=O)c1ccccc1F)C[C@H](C)[C@@H](OC)CN(C)C2=O	inactive	inactive	inactive
Cc1noc(C)c1NC(=O)Nc1ccc2c(c1)C(=O)N([C@H](C)CO)C[C@@H](C)[C@@H](CN(C)S(=O)(=O)c1cn(C)cn1)O2	inactive	inactive	inactive
COc1ccc(S(=O)(=O)Nc2ccc3c(c2)C(=O)N([C@@H](C)CO)C[C@@H](C)[C@H](CN(C)S(=O)(=O)c2cn(C)cn2)OCCCC[C@@H](C)O3)cc1	inactive	inactive	inactive
CCOC(=O)N(C)C[C@@H]1OCc2cnnn2CCCC(=O)N([C@@H](C)CO)C[C@@H]1C	inactive	inactive	inactive
O=C(C[C@@H]1C[C@H]2c3cc(NS(=O)(=O)c4ccc(F)cc4)ccc3O[C@H]2[C@@H](CO)O1)NCc1ccccc1F	inactive	inactive	inactive

Compound	cytotoxicity call (HSkMC)	cytotoxicity call (HepG2)	growth inhibition call (S. aureus RN4220)
CN1CCN(C(=O)[C@H]2[C@H](CO)[C@H]3Cn4c(ccc(C5=CCCCC5)c4=O)[C@@H]2N3S(C)(=O)=O)CC1	inactive	inactive	inactive
Cc1ccc(S(=O)(=O)N(C)C[C@H]2Oc3ccc(NS(=O)(=O)c4cn(C)cn4)cc3C(=O)N([C@H](C)CO)C[C@@H]2C)cc1	inactive	inactive	inactive
C[C@@H]1CCCCO[C@H](CN(C)S(=O)(=O)c2ccc(F)cc2)[C@@H](C)CN([C@H](C)CO)C(=O)c2cc(NS(=O)(=O)c3ccc(Cl)cc3)ccc2O1	inactive	inactive	inactive
C[C@H]1CN([C@@H](C)CO)S(=O)(=O)c2ccc(C#CCN(C)C)cc2O[C@@H]1CN(C)S(C)(=O)=O	inactive	inactive	inactive
Cc1ccc(-c2cnc3c(c2)C(=O)N([C@H](C)CO)C[C@H](C)[C@@H](CN(C)C(=O)Cc2ccncc2)O3)cc1	inactive	inactive	inactive
CCN(CC)CCOC(=O)C(c1ccccc1)C1CCCCC1.Cl (centres undefined)	inactive	active	inactive
c1ccc(-c2nc(C34CC5CC(CC(C5)C3)C4)cs2)cc1	inactive	inactive	inactive
Cc1noc(C)c1NC(=O)N(C)C[C@H]1Oc2ccc(NC(=O)NC(C)C)cc2CC(=O)N([C@@H](C)CO)C[C@H]1C	inactive	inactive	inactive
COc1ccccc1-c1ccc2c(c1)O[C@@H](CN(C)CC1CCOCC1)[C@H](C)CN([C@H](C)CO)S2(=O)=O	inactive	inactive	inactive
CO[C@H]1C[C@@H](O[C@@H](O)[C@@H](O)[C@@H](O)[C@@H](O)[C@@H](O)CO)c2c(cc3cc(C)oc(=O)c3c2O)OC1=O	inactive	inactive	inactive
C[C@H](CO)N1C[C@H](C)[C@H](CN(C)Cc2ccc(Cl)c(Cl)c2)Oc2ccc(NC(=O)Nc3ccc4c(c3)OCO4)cc2C1=O	inactive	inactive	inactive
C[C@@H]1CN([C@@H](C)CO)C(=O)c2cc(NS(=O)(=O)c3ccc(F)cc3)ccc2O[C@H]1CN(C)C(=O)Nc1ccc(C(F)(F)F)cc1	inactive	inactive	inactive
C[C@H]1COC(=O)[C@H](Cc2ccc(F)cc2)CCC=CC[C@@H](CC(=O)N[C@H](CO)Cc2ccccc2)C(=O)N1	inactive	inactive	inactive
C[C@H]1CN([C@@H](C)CO)C(=O)Cc2cc(NS(=O)(=O)c3ccc(F)cc3)ccc2O[C@@H]1CN(C)Cc1ccc(Oc2ccccc2)cc1	inactive	inactive	inactive
O=C(N[C@H](c1ccc2ccccc2n1)c1cccs1)C1CCN(Cc2cccc(C(F)(F)F)c2)CC1	inactive	inactive	inactive
CC(C)NC(=O)Nc1cccc2c1O[C@H](CN(C)C(=O)NC1CCCCC1)[C@H](C)CN([C@H](C)CO)C2=O	inactive	inactive	inactive
Cc1noc(C)c1NC(=O)Nc1ccc2c(c1)C(=O)N([C@@H](C)CO)C[C@H](C)[C@H](CN(C)S(C)(=O)=O)O2	inactive	inactive	inactive
C[C@H](CO)N1C[C@H](C)[C@@H](CN(C)C(=O)NC2CCCCC2)Oc2ccc(NS(=O)(=O)c3cn(C)cn3)cc2C1=O	inactive	inactive	inactive
C[C@H]1CCCCO[C@H](CN(C)S(=O)(=O)c2cn(C)cn2)[C@@H](C)CN([C@@H](C)CO)C(=O)c2cc(N(C)C)ccc2O1	inactive	inactive	inactive
CCCC(=O)Nc1ccc2c(c1)OC[C@@H](C)N(Cc1ccc(-c3ccccn3)cc1)C[C@H](C)[C@@H](OC)CN(C)C2=O	inactive	inactive	inactive
C[C@H](CO)N1C[C@H](C)[C@@H](CN(C)C)OCCCC[C@H](C)Oc2ccc(NS(=O)(=O)c3cn(C)cn3)cc2C1=O	inactive	inactive	inactive
COc1ccc(-c2cnc3c(c2)C(=O)N([C@@H](C)CO)C[C@H](C)[C@@H](CN(C)C(=O)C2CCOCC2)O3)cc1	inactive	inactive	inactive
CO[C@H]1CN(C(=O)c2ccnnc2)[C@H]2COC[C@@H]12	inactive	inactive	inactive
COc1ccc(-c2cc(=O)c3c(O)cc(O[C@@H]4O[C@H](CO[C@H]5O[C@H](C)[C@@H](O)[C@H](O)[C@@H]5O)[C@@H](O)[C@H](O)[C@H]4O)cc3o2)cc1O	inactive	inactive	inactive
C[C@@H]1CN([C@@H](C)CO)C(=O)Cc2cc(NC(=O)Cn3cnnn3)ccc2O[C@@H]1CN(C)C(=O)NC1CCCCC1	inactive	inactive	inactive
C[C@H]1CCCCO[C@@H](CN(C)Cc2ccc(C(F)(F)F)cc2)[C@@H](C)CN([C@@H](C)CO)C(=O)c2cc(NC(=O)C3CCCCC3)ccc2O1	inactive	inactive	inactive
